From the supplement of paper PMC3334620
The full ranking holds about 33,000 sequences; the median of “E-score (-0.5 to 0.5)” is about -0.01, and the highest 2% start at about 0.26. The list shows a part of the results.

molecular target: Ste12 (UniProt P13574); assay: PBM E-score (8-mer binding enrichment) (E-score (-0.5 to 0.5)); higher = stronger / more preferred TF binding; most listed sequences are background and not binding sites; settings: protein concentration: 200 nM; construct: GST-DNA-binding domain
Summary of the method: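 GST-tagged yeast TFs (full-length or DNA-binding domain) were made by PURExpress in vitro transcription/translation and applied at about 100-200 nM to universal all-10-mer Agilent arrays. The arrays were made double-stranded by primer extension, on fresh or once-stripped slides. Bound protein was detected with fluorescent anti-GST, and scans were normalised with masliner. Each ungapped eight-base word, pooled with its reverse complement, received an E-score (modified Wilcoxon-Mann-Whitney statistic) from the Universal PBM Analysis Suite.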

Sequence | PBM E-score
AGGATCTA | -0.0844
CCCTTAGC | -0.0617
CGTTAAAC | 0.106
CACTAAAA | 0.164
ATGGAACA | 0.00999
AGGGAAAC | -0.0648
TATGATCA | 0.0314
AGAGGTAA | 0.0639
GATCCGAA | 0.169
AGAATGGG | 0.0576
CCTATGGC | -0.192
AAACGGTC | 0.154
AACGAAGA | 0.228
GGCCGAAA | 0.158
CTCCTTGC | -0.18
AAGATCGG | -0.0329
GCGGTAAC | 0.0791
AAAACGTG | 0.183
ACTCAGGA | -0.00569
GCCGCGCA | -0.196
CACCGGCC | -0.177
GGGCAGAC | -0.149
CTCACTGA | 0.0605
CAAAAGAG | 0.137
AATCGGCA | 0.153

Sequence | PBM E-score
AAAAGTTA | 0.224
ACTTTCGA | -0.124
GCGTACGC | -0.143
GGCAGTGA | -0.129
ATAACAAG | 0.182
AAAGGTAA | 0.0185
TCTTTCCA | 0.166
CCAGCCCG | -0.0428
CCTACAGG | -0.321
ATATTTGG | 0.204
CTCCGGAA | 0.0746
GACTACGC | -0.309
ACTATCCG | 0.131
AATTCAAC | 0.122
CGATGGAC | 0.0174
AGGATGTG | 0.0759
ACGGGCCG | -0.11
TCCAGTCA | 0.0312
GATTTAGC | 0.108
CGGCTGCC | 0.0411
AGCGTAAT | -0.0775
TAAACCAA | 0.0193
ATTTACTC | 0.101
TGCTTAAA | 0.15
GCCCTTCA | -0.0938

Sequence | PBM E-score
CATGTATC | 0.138
AGGTCGGA | 0.0829
GACGTCCC | -0.163
AGAACATG | -0.0403
CCAACGGG | 0.0322
CGGTATCA | 0.123
ATTAGACG | 0.0127
ATTGAATA | 0.144
CGAACGGC | -0.0856
GGCTGTGA | -0.148
GAGCAACC | 0.02
AGTCTTCA | 0.015
AGTAGGGG | 0.107
AAAGTTGT | 0.257
AACGAGGC | -0.157
ATTATGAG | 0.0134
ATCCACAG | -0.0612
AACCAAAT | 0.103
CTGCGTTA | -0.0754
GATTGCCA | 0.153
GGAGACCC | -0.118
GCATGACA | -0.131
CTTCGGCC | -0.212
ATAGACAT | -0.0963
GTTCTAGA | -0.118

Sequence | PBM E-score
CTGCTCCA | -0.216
AGCTTTTG | 0.02
TCGTCGAA | -0.114
GCCACCAA | 0.071
CACACCAA | 0.115
ATGTCATA | 0.153
ATTGCGAG | 0.127
AATCGACA | 0.248
ACTCGTCG | -0.0312
TATTTTCA | 0.201
TCTGGGAA | 0.0759
AGCTACCT | -0.00965
CAATGCGG | 0.0105
AAGTATAG | 0.0368
CCTAGTTC | 0.0604
ACTCAGGG | -0.167
CGAGCGCG | 0.0806
CACTAGGG | 0.0129
GGACACAC | -0.112
AGTACAAC | -0.145
CCTTCCAG | -0.0414
GGCCCGCA | -0.0268
AGATGCCA | -0.0827
AATGAAGA | 0.304
AGGTGGCC | -0.19

Sequence | PBM E-score
CACAAGGG | -0.194
ACACAGGT | -0.155
AGTGGGAC | -0.035
ATAAGTAG | -0.0228
ATGCGAAA | 0.128
CTTATCTA | 0.219
AGAGCGTG | -0.0162
CCATGACC | -0.145
AGCCGCGC | 0.0595
GGTCTCCA | -0.0278
GAGTCTTA | -0.146
AATTACGA | 0.186
CCTTGACG | -0.255
ATTTGCTC | 0.0976
AGATTGTG | 0.0132
CAGCTACC | -0.126
CAATCCGG | 0.273
ATTGCTCA | -0.00894
AGAGAAAG | -0.114
AACAGCTG | -0.0391
AACTGCAC | 0.0285
GCTGAAGA | -0.0185
CGACGCAG | -0.237
TCCCGTAA | 0.176
ATTGTTTC | 0.356

Sequence | PBM E-score
ATGTCAGG | 0.145
CCCGAGGA | -0.0268
CAACTGTA | -0.0454
CCACTTCG | -0.0138
AGTACACA | 0.0479
GCTTTCGA | -0.159
CACCTAAC | 0.0515
CTGGTTTA | -0.0225
TCTCGACA | 0.0817
ATTTTCAA | 0.193
ACATAGAA | 0.244
CCCACTTA | 0.0163
CGCAACAG | 0.0203
CCAGATCG | 0.157
CGTTCCGC | 0.0351
AGCTGCCA | -0.0337
CAAACTAC | 0.0311
GCTCCCAC | -0.0278
ACTTCCTC | 0.113
CAGCCCTG | -0.335
CTGGATTC | -0.0392
TAAAGGTA | 0.0174
CACTAAAG | -0.0505
CTTTGATC | 0.109
ATACCTCA | 0.0605

Sequence | PBM E-score
ATTACAAC | -0.0498
AAGACAAA | 0.0815
CAGCGGAC | -0.0786
AAACAATC | 0.234
ATTAATGA | 0.254
ACGTGAGG | -0.0396
ATCAGAGG | -0.126
CAATCCCA | -0.0795
ATACATGG | 0.104
CGCTTGAA | 0.142
GAGATGCA | -0.0126
ATGCTGGG | -0.173
AGGCGAAT | 0.0149
GGTACGAA | 0.125
GCTCACAC | -0.0878
CAGAGAAA | 0.168
ATCGTGTC | 0.0885
AATTTACG | 0.167
ACCAGTCG | -0.16
AAGTCGGC | -0.16
CAAAGCAG | 0.0771
CCATGCTC | -0.189
